From the supplement of paper PMC10369915 come the findings set out here.

The list shows a part of the results. Cut-off read from the data, not from the text of the source: active = 3.2 or more and inactive = the rest. The signal is at background level for most entries.
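Note: displayed peptides selected on beads carrying the immobilized SH2 domain, with library peptides lacking any tyrosine serving as negative controls.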

One experiment has as its target SHP2 C-SH2 domain E139D. The experiment is described as follows: enrichment score (SH2-bound / input frequency) (ratio); bacterial display of known human phosphotyrosine sites (pTyr-Var adds point mutants) read by sequencing; higher = stronger binding; tyrosines were phosphorylated by kinases first. The settings on record: peptide library: pTyr-Var.
As to WQQQSYLDFGI [CTNNB1_Y30_S33F], the enrichment score was inactive: 1.08.
Regarding GPIIRYDLGGA [CYP11B1_Y81_F79I], the enrichment score is inactive: 0.899.
On the same count and under the same terms, the same measure for NHQFDYTFDWT [CSNK1A1_Y294_YF]: inactive: 1.1; for NRVEIYEKTVE [CYFIP1_Y108]: inactive: 0.982; for HESEIYGKVCF [CSRP3_Y57_C58G_YF]: inactive: 0.902.
Same read-out and setting: the same measure for DLGIQYKVLKP [CTNNA1_Y177_A179V]: inactive: 0.875; for SPRDTYSDRSG [CTPS1_Y567]: inactive: 0.517.
For NYADPYRQLPY [CTNND2_Y503_Q507P], the enrichment score was inactive: 0.772.
The same measure, in the same setting: for LVKDGYQTAQP [CSF1R_Y873_M875T] the value was inactive: 0.849; for WQQQSYLDSEI [CTNNB1_Y30_G34E], inactive: 0.818; for LGRGKYSEVFE [CSNK2A1_Y50], inactive: 0.776.
Same read-out and setting: for ASENVYVNIAH [CTSC_Y150] the value was active: 4.27; for PPKFFYTRKLL [CYBB_Y41], inactive: 0.385; for RESYKYLPSSL [CXXC1_Y218_F219L], inactive: 0.872.
Take YRQLPYCPSVE [CTNND2_Y508_Q507P]: the enrichment score was inactive: 0.896.
As to PFTRNYFVQAV [CYBA_Y87_R90Q_YF], the enrichment score was inactive: 1.15.
As for WQQQSYLFSGI [CTNNB1_Y30_D32Y_YF], the enrichment score was inactive: 1.43.
Still for that read-out and setting: the same measure for FTRNFYVRAVL [CYBA_Y88_YF]: inactive: 1.53.

The next experiment concerns the target SHP2 C-SH2 domain wild-type. Described as above. As to conditions: peptide library: pTyr-Var.
With WQQQSYLDFGI [CTNNB1_Y30_S33F], the enrichment score is inactive: 1.03.
The same measure, in the same setting: the same measure for GPIIRYDLGGA [CYP11B1_Y81_F79I]: inactive: 1.13.
Turning to NHQFDYTFDWT [CSNK1A1_Y294_YF], the enrichment score was inactive: 1.16.
Same read-out and setting: for NRVEIYEKTVE [CYFIP1_Y108] the value was inactive: 0.993; for HESEIYGKVCF [CSRP3_Y57_C58G_YF], inactive: 1.27; for DLGIQYKVLKP [CTNNA1_Y177_A179V], inactive: 0.819.
On the same count and under the same terms, for SPRDTYSDRSG [CTPS1_Y567] the value was inactive: 0.653; for NYADPYRQLPY [CTNND2_Y503_Q507P], inactive: 0.825; for LVKDGYQTAQP [CSF1R_Y873_M875T], inactive: 0.993.
Still for that read-out and setting: the same measure for WQQQSYLDSEI [CTNNB1_Y30_G34E]: inactive: 0.678; for LGRGKYSEVFE [CSNK2A1_Y50]: inactive: 0.532; for ASENVYVNIAH [CTSC_Y150]: active: 5.5.
Turning to PPKFFYTRKLL [CYBB_Y41], the enrichment score is inactive: 0.275.
Consider RESYKYLPSSL [CXXC1_Y218_F219L], for which the enrichment score was inactive: 0.83.
Same read-out and setting: the same measure for YRQLPYCPSVE [CTNND2_Y508_Q507P]: inactive: 0.795; for PFTRNYFVQAV [CYBA_Y87_R90Q_YF]: inactive: 0.911.
On the same count and under the same terms, for WQQQSYLFSGI [CTNNB1_Y30_D32Y_YF] the value was inactive: 1.55; for FTRNFYVRAVL [CYBA_Y88_YF], inactive: 1.54.

A further experiment concerns the target SHP2 N-SH2 domain L43F. Described as above. As to conditions: peptide library: pTyr-Var.
Consider WQQQSYLDFGI [CTNNB1_Y30_S33F], for which the enrichment score is inactive: 1.12.
Same read-out and setting: the same measure for GPIIRYDLGGA [CYP11B1_Y81_F79I]: inactive: 0.984; for NHQFDYTFDWT [CSNK1A1_Y294_YF]: inactive: 1.12; for NRVEIYEKTVE [CYFIP1_Y108]: inactive: 0.921.
The same measure, in the same setting: the same measure for HESEIYGKVCF [CSRP3_Y57_C58G_YF]: inactive: 0.927; for DLGIQYKVLKP [CTNNA1_Y177_A179V]: inactive: 0.963.
On the same count and under the same terms, for SPRDTYSDRSG [CTPS1_Y567] the value was inactive: 0.548; for NYADPYRQLPY [CTNND2_Y503_Q507P], inactive: 0.659.
As to LVKDGYQTAQP [CSF1R_Y873_M875T], the enrichment score was inactive: 0.533.
Same read-out and setting: the same measure for WQQQSYLDSEI [CTNNB1_Y30_G34E]: inactive: 0.769; for LGRGKYSEVFE [CSNK2A1_Y50]: inactive: 0.779.
Still for that read-out and setting: the same measure for ASENVYVNIAH [CTSC_Y150]: inactive: 3.09; for PPKFFYTRKLL [CYBB_Y41]: inactive: 0.307; for RESYKYLPSSL [CXXC1_Y218_F219L]: inactive: 0.626.
The same measure, in the same setting: for YRQLPYCPSVE [CTNND2_Y508_Q507P] the value was inactive: 0.882; for PFTRNYFVQAV [CYBA_Y87_R90Q_YF], inactive: 0.942; for WQQQSYLFSGI [CTNNB1_Y30_D32Y_YF], inactive: 1.75.
For the molecule FTRNFYVRAVL [CYBA_Y88_YF], the enrichment score is inactive: 0.929.

Another experiment has as its target SHP2 N-SH2 domain T42A. The experiment is described as above. As to conditions: peptide library: pTyr-Var.
As to WQQQSYLDFGI [CTNNB1_Y30_S33F], the enrichment score was inactive: 1.26.
The same measure, in the same setting: the same measure for GPIIRYDLGGA [CYP11B1_Y81_F79I]: inactive: 0.763; for NHQFDYTFDWT [CSNK1A1_Y294_YF]: inactive: 0.982.
Still for that read-out and setting: the same measure for NRVEIYEKTVE [CYFIP1_Y108]: inactive: 0.712; for HESEIYGKVCF [CSRP3_Y57_C58G_YF]: inactive: 0.66; for DLGIQYKVLKP [CTNNA1_Y177_A179V]: inactive: 0.82.
Same read-out and setting: for SPRDTYSDRSG [CTPS1_Y567] the value was inactive: 0.433; for NYADPYRQLPY [CTNND2_Y503_Q507P], inactive: 0.589; for LVKDGYQTAQP [CSF1R_Y873_M875T], inactive: 0.468.
For WQQQSYLDSEI [CTNNB1_Y30_G34E], the enrichment score was inactive: 0.733.
On the same count and under the same terms, the same measure for LGRGKYSEVFE [CSNK2A1_Y50]: inactive: 0.841.
On the same count and under the same terms, for ASENVYVNIAH [CTSC_Y150] the value was active: 6.35; for PPKFFYTRKLL [CYBB_Y41], inactive: 0.356; for RESYKYLPSSL [CXXC1_Y218_F219L], inactive: 0.745.
On the same count and under the same terms, the same measure for YRQLPYCPSVE [CTNND2_Y508_Q507P]: inactive: 0.883.
For the molecule PFTRNYFVQAV [CYBA_Y87_R90Q_YF], the enrichment score is inactive: 0.982.
On the same count and under the same terms, for WQQQSYLFSGI [CTNNB1_Y30_D32Y_YF] the value was inactive: 1.57; for FTRNFYVRAVL [CYBA_Y88_YF], inactive: 0.985.

The target of a further experiment is SHP2 N-SH2 domain T52S. Described as above. As to conditions: peptide library: pTyr-Var.
On to WQQQSYLDFGI [CTNNB1_Y30_S33F], for which the enrichment score is inactive: 1.2.
As for GPIIRYDLGGA [CYP11B1_Y81_F79I], the enrichment score is inactive: 0.974.
Still for that read-out and setting: the same measure for NHQFDYTFDWT [CSNK1A1_Y294_YF]: inactive: 1.01.
Still for that read-out and setting: the same measure for NRVEIYEKTVE [CYFIP1_Y108]: inactive: 0.69; for HESEIYGKVCF [CSRP3_Y57_C58G_YF]: inactive: 0.722.
Still for that read-out and setting: for DLGIQYKVLKP [CTNNA1_Y177_A179V] the value was inactive: 0.723; for SPRDTYSDRSG [CTPS1_Y567], inactive: 0.582.
For the molecule NYADPYRQLPY [CTNND2_Y503_Q507P], the enrichment score was inactive: 0.68.
Same read-out and setting: the same measure for LVKDGYQTAQP [CSF1R_Y873_M875T]: inactive: 0.593; for WQQQSYLDSEI [CTNNB1_Y30_G34E]: inactive: 0.821; for LGRGKYSEVFE [CSNK2A1_Y50]: inactive: 0.838.
Same read-out and setting: the same measure for ASENVYVNIAH [CTSC_Y150]: active: 3.58; for PPKFFYTRKLL [CYBB_Y41]: inactive: 0.409; for RESYKYLPSSL [CXXC1_Y218_F219L]: inactive: 0.752.
Same read-out and setting: the same measure for YRQLPYCPSVE [CTNND2_Y508_Q507P]: inactive: 0.965; for PFTRNYFVQAV [CYBA_Y87_R90Q_YF]: inactive: 0.795; for WQQQSYLFSGI [CTNNB1_Y30_D32Y_YF]: inactive: 1.41.
Take FTRNFYVRAVL [CYBA_Y88_YF]: the enrichment score was inactive: 0.77.

For another experiment, the target named is SHP2 N-SH2 domain wild-type. The description is as above. The settings on record: peptide library: pTyr-Var.
With WQQQSYLDFGI [CTNNB1_Y30_S33F], the enrichment score is inactive: 0.992.
Regarding GPIIRYDLGGA [CYP11B1_Y81_F79I], the enrichment score was inactive: 1.01.
The same measure, in the same setting: for NHQFDYTFDWT [CSNK1A1_Y294_YF] the value was inactive: 1.9; for NRVEIYEKTVE [CYFIP1_Y108], inactive: 0.967.
In the case of HESEIYGKVCF [CSRP3_Y57_C58G_YF], the enrichment score was inactive: 1.34.
Still for that read-out and setting: for DLGIQYKVLKP [CTNNA1_Y177_A179V] the value was inactive: 1.
On the same count and under the same terms, the same measure for SPRDTYSDRSG [CTPS1_Y567]: inactive: 0.609.
Same read-out and setting: for NYADPYRQLPY [CTNND2_Y503_Q507P] the value was inactive: 0.822; for LVKDGYQTAQP [CSF1R_Y873_M875T], inactive: 0.779.
Take WQQQSYLDSEI [CTNNB1_Y30_G34E]: the enrichment score was inactive: 0.639.
On the same count and under the same terms, for LGRGKYSEVFE [CSNK2A1_Y50] the value was inactive: 0.816; for ASENVYVNIAH [CTSC_Y150], inactive: 2.48; for PPKFFYTRKLL [CYBB_Y41], inactive: 0.411.
The same measure, in the same setting: the same measure for RESYKYLPSSL [CXXC1_Y218_F219L]: inactive: 0.941; for YRQLPYCPSVE [CTNND2_Y508_Q507P]: inactive: 1.
Still for that read-out and setting: the same measure for PFTRNYFVQAV [CYBA_Y87_R90Q_YF]: inactive: 0.826; for WQQQSYLFSGI [CTNNB1_Y30_D32Y_YF]: inactive: 1.34.
Consider FTRNFYVRAVL [CYBA_Y88_YF], for which the enrichment score was inactive: 1.75.
